Consider 36 compounds from PubChem BioAssay AID493014 (National Center for Advancing Translational Sciences (NCATS), 2011).

The structures appear in SMILES notation. Hit rate of the full screen: of about 340,000 compounds, about 170 (0.05%) were called active. About 26% were inconclusive and are not listed. Calls come from the whole dose curve; as a rule, active = well fitted inhibition curve with a large enough effect in the signal ratio, with a control signal flat (not every such curve was filed as active); inconclusive = small, poorly fitted or top-dose-only effect, or effect the other way, or a change in a side signal; inactive = flat fitted curve, though single readings scatter; the % refers to the signal ratio. The entries are a selection whose mix differs from that of the whole data set.
Potency is the fitted concentration of half-maximal effect.

The experiment can be described thus: qHTS Assay to Find Inhibitors of Chronic Active B-Cell Receptor Signaling.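 For activity change, negative = inhibition: plate controls were basal doxycycline-induced cells for no effect and cells given 10 µM MG132 for full effect.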 The note with it: ABC-DLBCL IkBa-CBG/CBR reporter, luminescence ratio (green luciferase fused to IkBa over red control in TMD8 lymphoma cells), 4 h; series mostly up to 46.1 µM; activity change, negative = inhibition: at the top concentration. The method, boiled down:
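Cell line TMD8 (human ABC DLBCL), stably expressing tet-inducible CBG68-IkBa fusion and CBR; IMDM/0.5% FBS; cpd up to 46 uM; dox induction, 4 h, 37C/5% CO2; dual luminescence; green/red ratio; MG132 control.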
(In qHTS, concentration-response curves come from the screen itself.)
In the case of `CC(C)(C)[C@@H]1COC(=O)[C@H](Cc2ccc(F)cc2)CC/C=C\C[C@H](CC(=O)N(CCO)Cc2ccccc2)C(=O)N1`, the “activity change, negative = inhibition” value was inactive: 2.05%.
Same read-out and setting: the figure for `Clc1cccc(-c2ccc3ncnc(NCc4cccs4)c3c2)c1` is inactive: -7.48%.
Consider `CCOc1ccc(N(CC(=O)Nc2ccccc2OC)S(=O)(=O)c2ccccc2)cc1`, for which the Potency was active: 15.8 µM.
Regarding `O=C(C[C@H]1C/C=C\CC[C@H](Cc2ccc(F)cc2)C(=O)OC[C@H]2CCCN2C1=O)N[C@@H](CO)Cc1ccccc1`, the “activity change, negative = inhibition” value was inactive: 0.795%.
Still for that read-out and setting: the figure for `O=C(O)[C@@H]1CCCN1S(=O)(=O)c1cccc2cccnc12` is inactive: -0.815%.
Same read-out and setting: then `O=C(COCc1ccccc1)N[C@@H]1c2ccccc2CC[C@@H]1OCc1ccccc1`, with inactive: 3.28%.
Take `C=CCOC(=O)C1=C[C@@H](c2cn(C(C)=O)c3ccccc23)C[C@@H](OCCCCO)O1`: the “activity change, negative = inhibition” value is inactive: -11.6%.
The same measure, in the same setting: then `COC(=O)C1=C(C)N(Cc2ccccc2)C(=NCCc2ccccn2)N[C@H]1c1cccc(C(F)(F)F)c1`, with inactive: 0.248%.
`CC(=O)C[C@H](O)CC(=O)[C@@H]1OC(=O)CCCCCc2ccccc21`: the “activity change, negative = inhibition” value is inactive: 5.04%.
The same measure, in the same setting: then `CCOC(=O)N1CCN(S(=O)(=O)N2CCCC(C(=O)NCc3ccc(OC)cc3OC)C2)CC1` (stereo unspecified), with inactive: -0.554%; and `COc1ccc(/C=C(\NC(=O)c2ccccc2)C(=O)N2CCC(C)CC2)cc1`, with inactive: 4.15%; and `C=CC[C@@H](CC(=O)NCCO)C(=O)N[C@H](COC(=O)[C@H](CC=C)CC(=O)OC(C)(C)C)Cc1c[nH]c2ccccc12`, with inactive: -5.83%.
Same read-out and setting: then `CC(C)(C)OC(=O)C[C@H]1C/C=C\C[C@@H](CC(=O)NCCO)C(=O)N[C@H](C(C)(C)C)COC1=O`, with inactive: 0.885%.
As to `COc1ccc(Nc2cc3n(c(=O)n2)CCc2cc(OC)c(OC)cc2-3)c(C)c1`, the Potency is active: 17.8 µM.
Take `CCN1C(=NCc2cc(OC)c(OC)c(OC)c2)N[C@@H](c2cccc(C(F)(F)F)c2)C(C(=O)OC)=C1C`: the “activity change, negative = inhibition” value was inactive: -6.31%.
With `COc1ccc(C2Nc3ccccc3C(=O)N2Cc2ccco2)cc1CN1C(=O)c2ccccc2C1=O` (stereo unspecified), the “activity change, negative = inhibition” value is inactive: -1.5%.
Turning to `COc1ccc(-c2ccc(CCC(=O)O)n2-c2ccccc2O)cc1`, the Potency is active: 15.8 µM.
As for `Oc1ccc(C[C@@H]2CNCCN2CCCCC2CCCCC2)cc1`, the “activity change, negative = inhibition” value was inactive: 0.585%.
In the case of `CCOC(=O)C1=C(C)NC(C)=C(C(=O)OC)C1c1cccc([N+](=O)[O-])c1` (stereo unspecified), the “activity change, negative = inhibition” value is inactive: -16.5%.
Same read-out and setting: the figure for `C[C@H]1NC(=O)[C@@]2(C)[C@@H](c3ccccc3)[C@H]3COc4ccccc4[C@@H]3N2C1=O` is inactive: -0.129%; for `COC(C[C@H]1O[C@@H]1[C@@H](O)[C@H](C)OCc1ccccc1)OC` it is inactive: -1.35%.
In the case of `O=C(Oc1c(CN2CCOCC2)cc(Cl)c2cccnc12)c1ccccc1F`, the Potency was active: 3.55 µM.
For the compound `Cc1ccc(C(O)(C(=O)NNc2ccc3ccccc3n2)c2ccc(C)cc2)cc1`, the “activity change, negative = inhibition” value is inactive: -4.41%.
On the same count and under the same terms, the figure for `C=CCC[C@H](Cc1ccc(F)cc1)C(=O)OC[C@H](Cc1c[nH]c2ccccc12)NC(=O)[C@@H](CC=C)CC(=O)N[C@@H](CO)Cc1ccccc1` is inactive: -0.163%.
`COc1cc2c(cc1OC)C(SC)=NC(C)(C)C2`: the Potency was active: 16.4 µM.
Turning to `CC(C)(C)OC(=O)C[C@H]1C/C=C\C[C@@H](CC(=O)N(CCO)Cc2ccccc2)C(=O)N2CCC[C@@H]2COC1=O`, the “activity change, negative = inhibition” value was inactive: 2.27%.
Same read-out and setting: then `O=C(C[C@@H]1C/C=C\C[C@H](NC(=O)OCC2c3ccccc3-c3ccccc32)C(=O)OC[C@@H]2CCCN2C1=O)N[C@@H](CO)Cc1ccccc1`, with inactive: -2.36%.
Same read-out and setting: the figure for `O=C(N/N=C/C(Cl)=C/c1ccccc1)c1cnccn1` is inactive: -20.4%; for `CC12CCCC[C@@H]1CCC1C2CCC2(C)C1CC[C@@]2(O)CNCCO` (stereo partly specified) it is inactive: 0.217%; for `Cc1cccc(-c2ccc3ncnc(NCc4cccnc4)c3c2)c1` it is inactive: -17.4%.
As for `CC(C)(C)OC(=O)N[C@@H](C(=O)OC(C)(C)C)c1ccc(Br)cc1`, the “activity change, negative = inhibition” value was inactive: 14.6%.
Same read-out and setting: the figure for `CC(C)CCNC(=O)c1ccc2c(c1)N(C)C(=O)c1ccccc1S2` is inactive: -5.41%; for `COc1ccc(C(C)n2c(C)c3c(C)nnc(C)c3c2C)cc1` (stereo unspecified) it is inactive: 4.63%.
On the same count and under the same terms, the figure for `COc1ccc(CCNC(=O)c2ccc(CS(=O)(=O)Cc3cccc(C)c3)o2)cc1OC` is inactive: -0.0419%; for `C[C@H]1COC(=O)[C@@H](CC(=O)OC(C)(C)C)C/C=C\C[C@H](CC(=O)NCCO)C(=O)N1` it is inactive: 4.08%; for `CC(=O)c1ccc(NS(=O)(=O)c2ccc(-c3cnc(C4CC4)o3)cc2)cc1` it is inactive: 20.5%.
